The other results are listed elsewhere or left out. The full chains were built here from the parent and the listed change. Inactive controls read about 0.05.

The chains are these.
B1: TEV protease; numbered along this chain (parent)
chain: MGESLFKGPRDYNPISSSICHLTNESDGHTTSLYGIGFGPFIITNKHLFRRNNGTLVVQSLHGVFKVKDTTTLQQHLVDGRDMIIIRMPKDFPPFPQKLKFREPQREERICLVTTNFQTKSMSSMVSDTSCTFPSGDGIFWKHWIQTKDGQCGSPLVSTRDGFIVGIHSASNFTNTNNYFTSVPKNFMELLTNQEAQQWVSGWRLNADSVLWGGHKVFMVKPEEPFQPVKEATQL

The variants in this assay derive from B1. The experiment in a line: raw area under fraction-flipped curve 0-4 h after induction (AUC4h, not background-subtracted), DNA-recorder readout of cleavage of the substrate (dimensionless); higher = more cleavage of the substrate by the protease variant. Conditions: temperature: 34 °C; time window: 0-4 h after rhamnose induction.
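Note: Bxb1 expression induced with 0.2% (w/v) L-rhamnose at OD600 near 0.5, cultures sampled hourly, flipped fraction per protease–substrate barcode pair counted by paired-end Illumina sequencing.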

Regarding MGESLFKGPRDYNPISSSICHLTNESDGHTTSLYGIGFGPFIITNKCLFRRNNGTLVVQSLHGVFKVKDTTTLQQHLVDGRDMIIIRMPKDFPPFPQKLKFREPQREERICLVTTNFQTKSMSSMVSDTSCTFPSGDGIFWKHWIQTKDGQCGSPLVSTRDGFIVGIHSASNFTNTNNYFTSVPKNFMELLTNQEAQQWVSGWRLNADSVLWGGHKVFMVKPEEPFQPVKEATQL [H47C], the “area with substrate ENLYFQC” value came out at 0.0404, the “area with substrate ENLYFQD” value is 0.0554, the “area with substrate ENLYFQE” value was 0.079 and the “area with substrate ENLYFQG” value turned out to be 0.0681. Moreover, the “area with substrate ENLYFQL” value was 0.0596, the “area with substrate ENLYFQN” value amounted to 0.0597, the “area with substrate ENLYFQP” value was determined as 0.0651 and the “area with substrate ENLYFQQ” value was 0.0564. Also, the “area with substrate ENLYFQR” value was determined as 0.0382, the “area with substrate ENLYFQS” value came out at 0.0616, the “area with substrate ENLYFQV” value is 0.0661 and the “area with substrate ENLYFQY” value was 0.0923.
Consider MGESLFKGPRDYNPISSSICHLTNESDGHTTSLYGIGFGPFIITNKHLIRRNNGTLVVQSLHGVFKVKDTTTLQQHLVDGRDMIIIRMPKDFPPFPQKLKFREPQREERICLVTTNFQTKSMSSMVSDTSCTFPSGDGIFWKHWIQTKDGQCGSPLVSTRDGFIVGIHSASNFTNTNNYFTSVPKNFMELLTNQEAQQWVSGWRLNADSVLWGGHKVFMVKPEEPFQPVKEATQL [F49I], for which the “area with substrate ENLYFQC” value is 0.0576, the “area with substrate ENLYFQF” value is 0.0888, the “area with substrate ENLYFQG” value was found to be 0.0616 and the “area with substrate ENLYFQI” value amounted to 0.0291. Besides, the “area with substrate ENLYFQK” value came to 0.0647, the “area with substrate ENLYFQL” value was 0.0543, the “area with substrate ENLYFQM” value worked out at 0.0597 and the “area with substrate ENLYFQN” value came out at 0.0533. For the same variant, the “area with substrate ENLYFQP” value is 0.0658, the “area with substrate ENLYFQQ” value came to 0.0604, the “area with substrate ENLYFQR” value worked out at 0.0563 and the “area with substrate ENLYFQS” value is 0.064. For the same variant, the “area with substrate ENLYFQT” value was 0.061 and the “area with substrate ENLYFQW” value came out at 0.0574.
Turning to MGESLFKGPRDYNPISSSICHLTNESDGHTTSLYGIGFGPFIITNKHLFRRNNGTLVVQKLHGVFKVKDTTTLQQHLVDGRDMIIIRMPKDFPPFPQKLKFREPQREERICLVTTNFQTKSMSSMVSDTSCTFPSGDGIFWKHWIQTKDGQCGSPLVSTRDGFIVGIHSASNFTNTNNYFTSVPKNFMELLTNQEAQQWVSGWRLNADSVLWGGHKVFMVKPEEPFQPVKEATQL [S60K], the “area with substrate ENLYFQC” value worked out at 0.0976, the “area with substrate ENLYFQD” value was 0.0624, the “area with substrate ENLYFQF” value is 0.0582 and the “area with substrate ENLYFQH” value amounted to 0.0648. Also, the “area with substrate ENLYFQI” value is 0.0528, the “area with substrate ENLYFQK” value was found to be 0.0608, the “area with substrate ENLYFQL” value came out at 0.0477 and the “area with substrate ENLYFQM” value is 0.0586. In addition, the “area with substrate ENLYFQP” value is 0.0469, the “area with substrate ENLYFQR” value came to 0.0586, the “area with substrate ENLYFQS” value worked out at 0.0868 and the “area with substrate ENLYFQT” value turned out to be 0.0459. The “area with substrate ENLYFQV” value is 0.0513, the “area with substrate ENLYFQW” value amounted to 0.0523 and the “area with substrate ENLYFQY” value stood at 0.0738.
Take MGESLFKGPRDYNPISSSICHLTNEPDGHTTSLYGIGFGPFIITNKHLFRRNNGTLVVQSLHGVFKVKDTTTLQQHLVDGRDMIIIRMPKDFPPFPQKLKFREPQREERICLVTTNFQTKSMSSMVSDTSCTFPSGDGIFWKHWIQTKDGQCGSPLVSTRDGFIVGIHSASNFTNTNNYFTSVPKNFMELLTNQEAQQWVSGWRLNADSVLWGGHKVFMVKPEEPFQPVKEATQL [S26P]: the “area with substrate ENLYFQC” value stood at 0.0643, the “area with substrate ENLYFQD” value was found to be 0.0363, the “area with substrate ENLYFQF” value worked out at 0.0528 and the “area with substrate ENLYFQI” value is 0.0494. Moreover, the “area with substrate ENLYFQK” value turned out to be 0.0474, the “area with substrate ENLYFQP” value is 0.0409, the “area with substrate ENLYFQQ” value was 0.0633 and the “area with substrate ENLYFQR” value came to 0.0561. For the same variant, the “area with substrate ENLYFQS” value turned out to be 0.0667, the “area with substrate ENLYFQV” value worked out at 0.092, the “area with substrate ENLYFQW” value is 0.049 and the “area with substrate ENLYFQY” value is 0.0584.
With MGESLFKGPRDYNPISSSICHLTNESDGHTTSLYGIGFGPFIITNKHLFRRNMGTLVVQSLHGVFKVKDTTTLQQHLVDGRDMIIIRMPKDFPPFPQKLKFREPQREERICLVTTNFQTKSMSSMVSDTSCTFPSGDGIFWKHWIQTKDGQCGSPLVSTRDGFIVGIHSASNFTNTNNYFTSVPKNFMELLTNQEAQQWVSGWRLNADSVLWGGHKVFMVKPEEPFQPVKEATQL [N53M], the “area with substrate ENLYFQC” value was determined as 0.102, the “area with substrate ENLYFQD” value was 0.0641, the “area with substrate ENLYFQF” value worked out at 0.0592 and the “area with substrate ENLYFQG” value was found to be 0.0904. Further, the “area with substrate ENLYFQH” value stood at 0.0762, the “area with substrate ENLYFQI” value came out at 0.0708, the “area with substrate ENLYFQK” value came to 0.06 and the “area with substrate ENLYFQL” value came out at 0.0556. For the same variant, the “area with substrate ENLYFQM” value amounted to 0.121, the “area with substrate ENLYFQN” value was determined as 0.0835, the “area with substrate ENLYFQQ” value amounted to 0.0855 and the “area with substrate ENLYFQR” value is 0.0776. The “area with substrate ENLYFQS” value came to 0.0861, the “area with substrate ENLYFQT” value was 0.0603, the “area with substrate ENLYFQV” value stood at 0.0611 and the “area with substrate ENLYFQW” value turned out to be 0.0631. Further, the “area with substrate ENLYFQY” value amounted to 0.0485.
Regarding MGESLFKGPRDYNPISSSICHLTNESDGHTTSLYGIGFGPFIITNKHLFRRNSGTLVVQSLHGVFKVKDTTTLQQHLVDGRDMIIIRMPKDFPPFPQKLKFREPQREERICLVTTNFQTKSMSSMVSDTSCTFPSGDGIFWKHWIQTKDGQCGSPLVSTRDGFIVGIHSASNFTNTNNYFTSVPKNFMELLTNQEAQQWVSGWRLNADSVLWGGHKVFMVKPEEPFQPVKEATQL [N53S], the “area with substrate ENLYFQC” value came to 0.115, the “area with substrate ENLYFQH” value is 0.0595, the “area with substrate ENLYFQI” value was 0.0547 and the “area with substrate ENLYFQL” value was determined as 0.0573. In addition, the “area with substrate ENLYFQM” value came to 0.121, the “area with substrate ENLYFQN” value amounted to 0.0911, the “area with substrate ENLYFQP” value worked out at 0.0587 and the “area with substrate ENLYFQQ” value was found to be 0.0653. In addition, the “area with substrate ENLYFQR” value came to 0.0566, the “area with substrate ENLYFQS” value was 0.0988, the “area with substrate ENLYFQT” value amounted to 0.0599 and the “area with substrate ENLYFQV” value is 0.0625. Moreover, the “area with substrate ENLYFQW” value was 0.0885 and the “area with substrate ENLYFQY” value stood at 0.0425.
Regarding MGESLFKGPRDYNPISSSICHLTNESDGHTTSLYGIGFGPFINTNKHLFRRNNGTLVVQSLHGVFKVKDTTTLQQHLVDGRDMIIIRMPKDFPPFPQKLKFREPQREERICLVTTNFQTKSMSSMVSDTSCTFPSGDGIFWKHWIQTKDGQCGSPLVSTRDGFIVGIHSASNFTNTNNYFTSVPKNFMELLTNQEAQQWVSGWRLNADSVLWGGHKVFMVKPEEPFQPVKEATQL [I43N], the “area with substrate ENLYFQC” value came to 0.0447, the “area with substrate ENLYFQD” value is 0.0581, the “area with substrate ENLYFQF” value came to 0.0478 and the “area with substrate ENLYFQH” value is 0.0784. Moreover, the “area with substrate ENLYFQI” value is 0.0414, the “area with substrate ENLYFQK” value was found to be 0.0439, the “area with substrate ENLYFQL” value is 0.0501 and the “area with substrate ENLYFQM” value was 0.039. The “area with substrate ENLYFQP” value worked out at 0.0567, the “area with substrate ENLYFQR” value is 0.0477, the “area with substrate ENLYFQS” value stood at 0.0471 and the “area with substrate ENLYFQT” value is 0.0397. Further, the “area with substrate ENLYFQW” value was 0.0485.
In the case of MGESLFKGPRDYNPISSSICHLTNESDGHTTSLYGIGFGPFILTNKHLFRRNNGTLVVQSLHGVFKVKDTTTLQQHLVDGRDMIIIRMPKDFPPFPQKLKFREPQREERICLVTTNFQTKSMSSMVSDTSCTFPSGDGIFWKHWIQTKDGQCGSPLVSTRDGFIVGIHSASNFTNTNNYFTSVPKNFMELLTNQEAQQWVSGWRLNADSVLWGGHKVFMVKPEEPFQPVKEATQL [I43L], the “area with substrate ENLYFQC” value worked out at 0.121, the “area with substrate ENLYFQD” value was found to be 0.0526, the “area with substrate ENLYFQK” value stood at 0.0597 and the “area with substrate ENLYFQM” value is 0.0887. Also, the “area with substrate ENLYFQN” value stood at 0.0772, the “area with substrate ENLYFQP” value was found to be 0.058, the “area with substrate ENLYFQQ” value turned out to be 0.0764 and the “area with substrate ENLYFQR” value was 0.0602. Besides, the “area with substrate ENLYFQS” value was found to be 0.101, the “area with substrate ENLYFQT” value came to 0.0726, the “area with substrate ENLYFQW” value amounted to 0.0674 and the “area with substrate ENLYFQY” value was found to be 0.105.
MGESLFKGPRDYNPISSSICHLTNESDGHTTSLYGIGFGPFISTNKHLFRRNNGTLVVQSLHGVFKVKDTTTLQQHLVDGRDMIIIRMPKDFPPFPQKLKFREPQREERICLVTTNFQTKSMSSMVSDTSCTFPSGDGIFWKHWIQTKDGQCGSPLVSTRDGFIVGIHSASNFTNTNNYFTSVPKNFMELLTNQEAQQWVSGWRLNADSVLWGGHKVFMVKPEEPFQPVKEATQL [I43S]: the “area with substrate ENLYFQC” value turned out to be 0.0556, the “area with substrate ENLYFQD” value came out at 0.0532, the “area with substrate ENLYFQE” value was 0.0532 and the “area with substrate ENLYFQG” value is 0.0489. The “area with substrate ENLYFQH” value was found to be 0.0534, the “area with substrate ENLYFQI” value turned out to be 0.0391, the “area with substrate ENLYFQK” value worked out at 0.0716 and the “area with substrate ENLYFQL” value was 0.0492. Besides, the “area with substrate ENLYFQM” value worked out at 0.0663, the “area with substrate ENLYFQN” value was 0.0495, the “area with substrate ENLYFQP” value amounted to 0.0261 and the “area with substrate ENLYFQQ” value was 0.0511. In addition, the “area with substrate ENLYFQR” value was found to be 0.044, the “area with substrate ENLYFQS” value was 0.056, the “area with substrate ENLYFQT” value was found to be 0.0431 and the “area with substrate ENLYFQW” value was found to be 0.0548. In addition, the “area with substrate ENLYFQY” value amounted to 0.0463.

Values taken from the supplement of paper PMC12217912.
